From patent US20180057551A1 (AMYLONIX, published 2018)
Positions count from the first letter of the chain named. In names and notes the source's numbering stands.

B1: ABPP095-PP013 (designed binder)
chain: MAGGERVYLPNLNADQLCAFIRSLEDDPSQSANLLAEAKKLNDAQAPASSSSGSSSSGRASAGGERVYLPNLNADQLCAFIRSLEDDPSQSANLLAEAKKLNDAQAPKGAPGGGGSTSLAEAKEAANAELDSYGVSDFYKRLIDKAKTVEGVEALKDAILAALP
B2: ABPP070 displayed on S. carnosus, fused to ABP (designed binder)
chain: AGRERVYLPNLNADQLCAFIRSLEDDPSQSANLLAEAKKLNDAQAPASSSSGSSSSGRASAGGERVYLPNLNADQLCAFIQSLEDDPSQSANLLAEAKKLNDAQAPKKLLDALAKAKADALKEFNKYGVSDYYKNLINNAKTVEGVKDLQAQVVESAKKARISEATDGLSDFLKSQTPAEDTVKSIELAEAKVLANRELDKYGVSDYHKNLINNAKTVEGVKDLQAQVVESAKKARISEATDGLSDFLKSQTPAEDTVKSIELAEAKVLANRELDKYGVSDYYKNLINNAKTVEGVKALIDEILAALP
notes: pSCZ1 surface display
B3: ABPP018 displayed on S. carnosus, fused to ABP (designed binder)
chain: AGGEIVYFPNLNADQLCAFIRSLEDDPSQQANLLAEAKKLNDAQAPASSSSGSSSSGSSSSGRASAGRERVYLPNLNADQLCAFIRSLEDDQSQRANLLAEAKKLNDAQAPKKLLDALAKAKADALKEFNKYGVSDYYKNLINNAKTVEGVKDLQAQVVESAKKARISEATDGLSDFLKSQTPAEDTVKSIELAEAKVLANRELDKYGVSDYHKNLINNAKTVEGVKDLQAQVVESAKKARISEATDGLSDFLKSQTPAEDTVKSIELAEAKVLANRELDKYGVSDYYKNLINNAKTVEGVKALIDEILAALP
notes: pSCZ1 surface display
B4: ABPP018 with C-terminal His6 tag (designed binder)
chain: AGGEIVYFPNLNADQLCAFIRSLEDDPSQQANLLAEAKKLNDAQAPASSSSGSSSSGSSSSGRASAGRERVYLPNLNADQLCAFIRSLEDDQSQRANLLAEAKKLNDAQAPKHHHHHH
notes: (S4G)3 linker
B5: ABPP095 with C-terminal His6 tag (designed binder)
chain: AGGERVYLPNLNADQLCAFIRSLEDDPSQSANLLAEAKKLNDAQAPASSSSGSSSSGRASAGGERVYLPNLNADQLCAFIRSLEDDPSQSANLLAEAKKLNDAQAPKHHHHHH
B6: ABPP070 with C-terminal His6 tag (designed binder)
chain: B5 chain with G3R, R81Q
B7: ABPP049 with C-terminal His6 tag (designed binder)
chain: B5 chain with L8F, P9T, R21Q, G63R, D74H, S90Q
B8: ABPP028 with C-terminal His6 tag (designed binder)
chain: B5 chain with R5I, D14H, R21Q, S30Q, G63R, D74H, R81Q
B9: ABPP035 with C-terminal His6 tag (designed binder)
chain: B5 chain with R5I, L8F, D14H, S30Q, G63R, R81N, L83I
B10: ABPP084 with C-terminal His6 tag (designed binder)
chain: B5 chain with L8F, P9T, S30Q, N32K, G63R
B11: ABPP050 with C-terminal His6 tag (designed binder)
chain: B5 chain with R5I, R21Q, G63R, D74H, R81Q, S90Q
B12: ABPP095b-LEHHHHHH (designed binder)
chain: AGGERVYLPNLNADQLCAFIRSLEDDPSQSSELLSEAKKLSESQAPASSSSGSSSSGRASAGGERVYLPNLNADQLCAFIRSLEDDPSQSSELLSEAKKLSESQAPKLEHHHHHH
notes: scaffold mutated ABPP095
B13: ABPP095a-LEHHHHHH (designed binder)
chain: B12 chain with S31A, E32N, S35A, S43A, S91A, E92N, S95A, S103A
notes: scaffold mutated ABPP095
B14: ABPP095c-LEHHHHHH (designed binder)
chain: B12 chain with N12T, S22K, N72T, S82K
notes: scaffold mutated ABPP095

Each binder was assayed against T1, human serum albumin (human, UniProt P02768 25-609) (assay: capture on HSA-Sepharose, acid elution, reducing SDS-PAGE, silver stain).
T1 construct: also called HSA; HSA-Sepharose
B1: binds.

Each binder was assayed against T2, human Aβ1-40 peptide (human, biotin at the C-terminus (flow cytometry, Examples 2-4) or at the N-terminus (SPR, ELISA); unlabeled plus Alexa488/Alexa647-labeled in FCS) (assay: flow cytometry, on-cell off-rate ranking on S. carnosus: 25 nM biotinylated Aβ1-40, 100 nM unlabeled Aβ1-40 for 6 h; MFI of Aβ binding (FL-2) / MFI of surface expression (FL-6)).
T2 construct: synthetic peptide (AnaSpec); one entry for all labelled forms, label named under assay; also called hAβ1-40; Aβ40
B2: binds.
B3: binds.

Each binder was assayed against T2, human Aβ1-40 peptide (assay: SPR ProteOn XPR36, biotinylated Aβ1-40 on Neutravidin chip, 1:1 Langmuir).
For B4, the Kd was 0.97 nM, the koff was 8.8e-05 s⁻¹ and the kon was 91000 M⁻¹ s⁻¹.
B5 showed a Kd of 0.34 nM.
For B6, the Kd was 0.59 nM, the koff was 4.2e-05 s⁻¹ and the kon was 72000 M⁻¹ s⁻¹.
B7 gave a Kd of 1.15 nM, a koff of 0.00015 s⁻¹ and a kon of 130000 M⁻¹ s⁻¹.
B8 gave a Kd of 1.02 nM, a koff of 9e-05 s⁻¹ and a kon of 88000 M⁻¹ s⁻¹.
B9 was tested, and the Kd was 2.6 nM, the koff was 6.7e-05 s⁻¹ and the kon was 28000 M⁻¹ s⁻¹.
For B10, the Kd was 1.4 nM, the koff was 0.00015 s⁻¹ and the kon was 110000 M⁻¹ s⁻¹.
For B11, the Kd was 6.9 nM, the koff was 7.1e-05 s⁻¹ and the kon was 16000 M⁻¹ s⁻¹.

What follows are binders tested against T2, human Aβ1-40 peptide (assay: SPR Biacore 2000, biotinylated peptide on SA chip, 1:1 Langmuir).
Description: (§1) Kinetic constants were calculated from the sensorgrams using the Langmuir 1:1 model of BiaEvaluation software 4.1 (GE Healthcare).
B1 was tested, and the Kd was 2.7 nM.
B5 gave a Kd of 0.5 nM.
Binder B12 has a Kd of 13 nM.
In the case of B13, the Kd is reported as 4 nM.
B14 was tested, and the Kd was 2.3 nM.

These binders were tested against T3, human Aβ1-42 peptide (human, N-terminal biotin in SPR (Example 15); unlabeled in Example 7) in the same assay as above.
T3 construct: also called hAβ1-42
Description: as §1
Binder B1 has a Kd of 2.3 nM.
For B5, the Kd was 0.33 nM.
B12 was tested, and the Kd was 15 nM.
For B13, the Kd was 5 nM.
B14 showed a Kd of 2.6 nM.
